Source: PubChem BioAssay AID651820 (National Center for Advancing Translational Sciences (NCATS), 2012)
Among all 340,000 compounds or so, about 12,000 (3.5%) were called active. This list was built around the results that the source calls inconclusive (neither active nor inactive); the mix of calls is not that of the screen. Calls follow the shape of the dose curve; as a rule, active = well fitted inhibition curve with a large enough effect; inconclusive = small, poorly fitted or top-dose-only effect, or another doubt; inactive = no such curve, though single readings can be large or run the other way. Potencies of inconclusive entries are left out as doubtful fits.

assay: qHTS Assay for Inhibitors of Hepatitis C Virus (HCV); settings: Huh7.5.1 HCVcc-Cre (HCVcc is cell-culture hepatitis C virus) infection, luciferase reporter, 44 h; activity change, negative = inhibition: at 41.8 µM (top of the series)
In short: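 Antiviral activity was scored by luciferase reporter output from cells infected with HCVcc-Cre (~0.5 moi) in presence of compound, 44 h infection period, cells seeded 1,000/well 4 h prior.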
% is scaled to controls: 0 for no effect and ±100 for the full control effect; potency is read from the fitted curve at half-maximal effect; tags tell the direction and shape of the fitted curve.

**Q.** For COc1ccc(/C(N)=N/OC(=O)C2CCCCC2)cc1OC, which Potency is on record?
**A.** inconclusive [inhibitor, single point]

**Q.** With Cc1cc(C)cc(N(CC(=O)Nc2ccccc2)C2=NC3CS(=O)(=O)CC3S2)c1 (centres undefined) as the compound, how does the “activity change, negative = inhibition” value read?
**A.** inactive: -15.9%

**Q.** With C=CCn1c(SCCOc2ccccc2)nnc1C(C)NC(=O)c1ccccc1 (centres undefined) as the compound, how does the “activity change, negative = inhibition” value read?
**A.** inactive: -14.9%

**Q.** Which “activity change, negative = inhibition” value does the source give for COc1ccc(S(=O)(=O)c2ccc(O)cc2)cc1 here?
**A.** inactive: 14.6%

**Q.** Which “activity change, negative = inhibition” value does the source give for CCc1nnc(N/N=C/c2ccccc2F)n1N here?
**A.** inactive: -2.44%

**Q.** For COc1ccc(-c2ccc([C@H]3[C@H]4C=CC[C@@H](C)[C@@H]4C(=O)N3Cc3ccccc3)c(F)c2)cc1, which Potency is on record?
**A.** inconclusive [inhibitor, partial curve, poor fit]

**Q.** For CCc1ccc(NC(=O)NCCN2CCCCC2)cc1, which Potency is on record?
**A.** inconclusive [inhibitor, single point]

**Q.** Which “activity change, negative = inhibition” value does the source give for COc1ccccc1C(=O)OCc1c(F)cccc1Cl here?
**A.** inactive: 4.97%

**Q.** Which Potency does the source give for Cn1cc(C(F)(F)F)nc1-c1ccc(OCC(O)CNCCOc2ccc(O)c(C(N)=O)c2)cc1 (centres undefined) here?
**A.** inconclusive [inhibitor, partial curve, poor fit]

**Q.** For COc1ccccc1N1CC(O)=C(c2nc3ccccc3c(=O)[nH]2)C1=N, which Potency is on record?
**A.** inconclusive [inhibitor, full curve, poor fit]

**Q.** With CCN1CCN(c2c(Cl)cccc2NC(=O)c2ccco2)CC1 as the compound, how does the Potency read?
**A.** inconclusive [inhibitor, single point]

**Q.** Which Potency does the source give for OC(COc1ccc(C2C=CCC2)cc1)CN1CCCCC1 (centres undefined) here?
**A.** inconclusive [inhibitor, full curve]

**Q.** For COc1ccc(NS(=O)(=O)c2ccc(-n3cnnn3)cc2)cc1OC, which Potency is on record?
**A.** inconclusive [inhibitor, single point]

**Q.** With CCN1CCN(Cc2ccc(OC(F)(F)F)cc2)CC1 as the compound, how does the “activity change, negative = inhibition” value read?
**A.** inactive: -17.5%

**Q.** Which Potency does the source give for CCn1c(SCc2c(Cl)cccc2Cl)nc2nc3c(cc2c1=O)CCCC3 here?
**A.** inconclusive [inhibitor, partial curve]

**Q.** With Cc1ccc(C(=O)N/N=C/c2ccc(-c3cccc(C(F)(F)F)c3)o2)cn1 as the compound, how does the Potency read?
**A.** inconclusive [inhibitor, single point]

**Q.** For CCN1C(=O)c2ccccc2Sc2ccc(C(=O)NCCC(C)C)cc21, which Potency is on record?
**A.** inconclusive [inhibitor, partial curve]

**Q.** Which Potency does the source give for COc1ccc(-c2noc(C3CCCN(S(=O)(=O)c4ccc(C)c(Cl)c4)C3)n2)cc1OC (centres undefined) here?
**A.** inconclusive [inhibitor, full curve]

**Q.** Which Potency does the source give for CN(C)CCN(C(=O)c1ccc(S(=O)(=O)N(C)c2ccccc2)cc1)c1nc2ccc(Cl)cc2s1 here?
**A.** inconclusive [inhibitor, single point]

**Q.** Which Potency does the source give for CCCn1c2ccc(F)cc2c2nnc(SCCN3CCOCC3)nc21 here?
**A.** inconclusive [inhibitor, partial curve]

**Q.** Which Potency does the source give for COc1cccc(-c2c(NC(=O)c3ccco3)oc3ccccc3c2=O)c1 here?
**A.** active: 0.316 µM

**Q.** For CC1=C(C(=O)OC(C)(C)C)C(c2cccc3ccccc23)NC(=O)N1 (centres undefined), which Potency is on record?
**A.** inconclusive [inhibitor, single point]

**Q.** Which Potency does the source give for COc1cc(NC(=O)c2ccco2)c(OC)cc1NC(=O)Nc1ccc(Cl)cc1 here?
**A.** inconclusive [inhibitor, full curve, poor fit]

**Q.** With COc1ccccc1CNC(=O)COc1ccccc1C(=O)c1cnn(-c2ccccc2)c1 as the compound, how does the Potency read?
**A.** inconclusive [inhibitor, partial curve]

**Q.** Which Potency does the source give for COc1ccccc1N1CCN(Cc2nnnn2CCc2ccccc2)CC1 here?
**A.** inconclusive [inhibitor, single point]

**Q.** For Cc1ccc(C)c(NC(=O)COc2coc(CN3CCc4ccccc4C3)cc2=O)c1, which Potency is on record?
**A.** inconclusive [inhibitor, single point]

**Q.** Which “activity change, negative = inhibition” value does the source give for CS(=O)(=O)c1ccc(Cl)c(NC(=O)C2CCCCN2S(=O)(=O)c2ccccc2)c1 (centres undefined) here?
**A.** inactive: -4.4%

**Q.** With Cc1ccc(-c2nn(-c3ccc(F)cc3)cc2C(=O)NCC2CCCO2)cc1 (centres undefined) as the compound, how does the Potency read?
**A.** inconclusive [inhibitor, single point]

**Q.** Which “activity change, negative = inhibition” value does the source give for CC1CCN(C(=O)c2[nH]cnc2C(=O)Nc2ccc(Cl)cc2)CC1 here?
**A.** inactive: -10.1%

**Q.** With CC(C)c1c(C(=O)N/N=C/c2ccncc2)nnn1-c1nonc1N as the compound, how does the Potency read?
**A.** inconclusive [inhibitor, single point]

**Q.** Which “activity change, negative = inhibition” value does the source give for CC(=O)NN1C(=O)c2ccccc2NC1c1ccc(N(C)C)cc1 (centres undefined) here?
**A.** inactive: -0.11%

**Q.** For CCCN1CCc2c(sc(NC(=O)c3ccc(S(=O)(=O)N4CCN(C(=O)OCC)CC4)cc3)c2C(N)=O)C1, which Potency is on record?
**A.** inconclusive [inhibitor, single point]

**Q.** Which “activity change, negative = inhibition” value does the source give for O=C(Nc1ccc(C(=O)N2CCN(c3ccc(F)cc3)CC2)cc1)C1=CSCCO1 here?
**A.** inactive: -7.47%

**Q.** For COc1ccc2c(c1)OC/C(=C/c1cccs1)C2=O, which “activity change, negative = inhibition” value is on record?
**A.** inactive: 0.554%

**Q.** With C=C(C)CNC(=S)NN=C1c2ccccc2-c2ccccc21 as the compound, how does the Potency read?
**A.** active: 11.2 µM

**Q.** Which “activity change, negative = inhibition” value does the source give for CCOc1ccc(N2C(=O)CC(=O)NC2=O)cc1 here?
**A.** inactive: 13.1%

**Q.** Which Potency does the source give for O=S(=O)(NCCN1CCOCC1)c1ccc(Oc2ccccc2Cl)cc1 here?
**A.** inconclusive [inhibitor, single point]

**Q.** Which Potency does the source give for O=C1[C@H]2CCC=C[C@H]2[C@H](c2ccccc2Br)N1Cc1ccccc1 here?
**A.** inconclusive [inhibitor, partial curve]

**Q.** Which “activity change, negative = inhibition” value does the source give for CC12CCC(C(=O)Nc3cc(Cl)ccc3Cl)(C(Br)C1=O)C2(C)C (centres undefined) here?
**A.** inactive: -3.57%

**Q.** Which Potency does the source give for CCN=c1scc(-c2ccccc2)n1/N=C/c1ccccn1 here?
**A.** inconclusive [inhibitor, single point]

**Q.** With COc1ccc(S(=O)(=O)Cc2ccc(C(=O)NCc3ccc(C)cc3)o2)cc1 as the compound, how does the Potency read?
**A.** inconclusive [inhibitor, single point]

**Q.** With O=C1CN(C(=O)COC(=O)c2ccc(N3CCCCCC3)c([N+](=O)[O-])c2)c2ccccc2N1 as the compound, how does the Potency read?
**A.** inconclusive [inhibitor, partial curve, poor fit]

**Q.** Which Potency does the source give for O=C(CSc1nnc(-c2ccc(Br)cc2)o1)N1CCN(C(=O)c2ccco2)CC1 here?
**A.** inconclusive [inhibitor, partial curve]

**Q.** For CCOC(=O)c1c(NC(=O)COc2ncnc3ccccc23)sc(C)c1CC, which Potency is on record?
**A.** inconclusive [inhibitor, full curve]

**Q.** For CC(C)c1cc(C(N)=O)c(NC(=O)c2cccc(COc3ccc(Br)cc3)c2)s1, which Potency is on record?
**A.** active: 10 µM

**Q.** With CCOC(=O)CNC(=O)N1CCc2ccc(NC(=O)c3ccccc3OC)cc2C1 as the compound, how does the “activity change, negative = inhibition” value read?
**A.** inactive: -2.1%

**Q.** For Cc1oc(-c2cccc(C(F)(F)F)c2)nc1CN1CCOCC1, which Potency is on record?
**A.** inconclusive [inhibitor, single point]

**Q.** For COC(=O)c1ccc(CSc2nc3ccccc3c(=O)n2-c2cccc(OC)c2)o1, which Potency is on record?
**A.** inconclusive [inhibitor, single point]

**Q.** With C=CCC[C@@H](Cc1ccc(F)cc1)C(=O)O[C@H](CNC(=O)[C@H](CC=C)CC(=O)N(CCO)Cc1ccccc1)c1ccccc1 as the compound, how does the Potency read?
**A.** active: 8.91 µM

**Q.** With O=C(NCc1ccc2c(c1)OCO2)C1CCCN(S(=O)(=O)c2cccc3cccnc23)C1 (centres undefined) as the compound, how does the Potency read?
**A.** inconclusive [inhibitor, single point]

**Q.** For CCC(C)c1ccc(C(C)NC(=S)NCc2ccc(F)cc2)cc1 (centres undefined), which Potency is on record?
**A.** active: 7.08 µM

**Q.** For C[C@H](NS(=O)(=O)c1ccccc1)C(=O)N1CCN(C(c2ccccc2)c2ccccc2)CC1, which Potency is on record?
**A.** inconclusive [inhibitor, single point]

**Q.** With COc1cc(CNCCc2ccc(F)cc2)ccc1OCc1ccc(Cl)nc1 as the compound, how does the Potency read?
**A.** inconclusive [inhibitor, single point]

**Q.** Which Potency does the source give for COc1cc2c(cc1OC)CN(C(=O)c1cccc([N+](=O)[O-])c1)CC2 here?
**A.** inconclusive [inhibitor, single point]

**Q.** Which Potency does the source give for Cc1nc2ccccc2c(=O)n1-c1cc([N+](=O)[O-])cc([N+](=O)[O-])c1 here?
**A.** inconclusive [inhibitor, partial curve]

**Q.** For CC(=O)N1c2ccc(Cl)cc2C2C=CCC2C1c1cccc2ccccc12 (centres undefined), which Potency is on record?
**A.** inconclusive [inhibitor, partial curve]

**Q.** With O=C(N/N=C/c1ccco1)c1cccc(N2CCCC2=O)c1 as the compound, how does the “activity change, negative = inhibition” value read?
**A.** inactive: 17.7%

**Q.** Which Potency does the source give for COc1cc2nc(Nc3ccc(F)cc3)nc(N)c2cc1OC here?
**A.** inconclusive [inhibitor, single point]

**Q.** Which “activity change, negative = inhibition” value does the source give for Cc1cc(OCC(=O)NC(C)c2ccccc2)ccc1[N+](=O)[O-] (centres undefined) here?
**A.** inactive: 2.3%

**Q.** With COc1nc(NC(=O)c2ccc(F)cc2)nc(OC)c1-c1ccccc1 as the compound, how does the Potency read?
**A.** inconclusive [inhibitor, single point]

**Q.** Which Potency does the source give for Oc1ccc(Br)cc1/C=N/Nc1ccccn1 here?
**A.** active: 3.55 µM

**Q.** For Cc1cc(=O)oc2c(C)c(OC(C)C(=O)NCC(O)c3ccccc3)ccc12 (centres undefined), which Potency is on record?
**A.** inconclusive [inhibitor, single point]

**Q.** With CCOC(=O)NC(=O)CSc1ccccn1 as the compound, how does the “activity change, negative = inhibition” value read?
**A.** inactive: 19.9%

**Q.** With CCOC(=O)c1c(C)nc(-c2ccccc2)nc1NC(C)=O as the compound, how does the “activity change, negative = inhibition” value read?
**A.** inactive: -23.5%

**Q.** For CCOC(=O)C1CCN(c2nc3ccccc3nc2C(C#N)C(=O)OC(C)COC)CC1 (centres undefined), which Potency is on record?
**A.** inconclusive [inhibitor, single point]

**Q.** Which Potency does the source give for O=C(c1ccc([N+](=O)[O-])o1)N1CCN(c2nc3ccc(F)cc3s2)CC1 here?
**A.** inconclusive [inhibitor, single point]

**Q.** With COc1ccc(-c2csc(N(CCCN(C)C)C(=O)c3ccccc3C)n2)cc1 as the compound, how does the Potency read?
**A.** inconclusive [inhibitor, single point]

**Q.** Which Potency does the source give for CC1=NOC(=O)/C1=C\c1ccc(-c2cc(Cl)ccc2Cl)o1 here?
**A.** inconclusive [inhibitor, single point]

**Q.** For Cc1ccc(NC(=S)NNC(=S)Nc2cccc(C(F)(F)F)c2)cc1, which Potency is on record?
**A.** inconclusive [inhibitor, partial curve]
